Experimental data reported in patent US9890133B2 (priority 2011, dated 2018).
Read-outs that look alike come from different tables or passages of the source.

Tests used:
Coxsackie B4 = assay: CPE inhibition assay, Coxsackie B4; assay type: cell-based; details: Enterovirus B, B4, HeLa37, 48 h; HeLa, 37° C., 2 days, MTT
Coxsackie B1 = assay: organism not typed; details: read-out: Coxsackie B1 EC50
Rhinovirus = assay: microbe, parasite or virus in culture; assay type: cell-based; details: Enterovirus
Coxsackie B3 = assay: microbe, parasite or virus in culture; details: Enterovirus B, B3, read-out: Coxsackie B3 EC50
[1] = HRV14, read-out: Rhino HRV14 EC50
[2] = HRV71, read-out: Rhino HRV71 EC50
[3] = HRV21, read-out: Rhino HRV21 EC50

| Structure (SMILES) | EC50 (Coxsackie B4) | EC50 (Coxsackie B1; HeLa37, 48 h) | EC50 (Coxsackie B1) | EC50 (Rhinovirus; [1]) | EC50 (Coxsackie B3) | EC50 (Rhinovirus; [2]) | EC50 (Rhinovirus; [3]) |
| --- | --- | --- | --- | --- | --- | --- | --- |
| CC(C)c1ccc2c(c1)O[C@@]1(O)c3cccc(O)c3C(=O)[C@@]21O [Example 43, 1,4b,9b-Trihydroxy-7-isopropyl-4bH-benzo[d]indeno[1,2-b]furan-10(9bH)-one] | < 0.01 µg/mL | < 0.01 µg/mL | < 0.01 µg/mL | – | – | – | – |
| Cc1nc(C(=O)NC23C(=O)c4c(N)cccc4C2(O)Oc2cc(C(C)C)ccc23)c2ccccn12 (stereo not shown) [Example 287, N-(1-Amino-4b-hydroxy-7-isopropyl-10-oxo-9b,10-dihydro-4bH-benzo[d]indeno[1,2-b]furan-9b-yl)-3-methylimidazo[1,5-a]pyridine-1-carboxamide] | – | – | < 0.01 µg/mL | < 0.01 µg/mL | < 0.01 µg/mL | – | – |
| CC(C)c1ccc2c(c1)OC1(O)c3cccc(N)c3C(=O)C21NC(=O)c1[nH]nc2ccccc12 (stereo not shown) [Example 288, N-(1-Amino-4b-hydroxy-7-isopropyl-10-oxo-9b,10-dihydro-4bH-benzo[d]indeno[1,2-b]furan-9b-yl)-2H-indazole-3-carboxamide] | – | – | < 0.01 µg/mL | < 0.01 µg/mL | < 0.01 µg/mL | < 1 µg/mL | – |
| Cc1c(C(=O)NC23C(=O)c4c(N)cccc4C2(O)Oc2cc(C(C)C)ccc23)cnc2ccnn12 (stereo not shown) [Example 289, N-(1-Amino-4b-hydroxy-7-isopropyl-10-oxo-9b,10-dihydro-4bH-indeno[1,2-b]benzofuran-9b-yl)-7-methylpyrazolo[1,5-a]pyrimidine-6-carboxamide] | – | – | < 0.01 µg/mL | < 0.01 µg/mL | < 0.01 µg/mL | < 1 µg/mL | < 1 µg/mL |
| CC(C)c1ccc2c(c1)OC1(O)c3cccc(N)c3C(=O)C21NC(=O)c1nc2ccccc2[nH]1 (stereo not shown) [Example 290, N-(1-Amino-4b-hydroxy-7-isopropyl-10-oxo-9b,10-dihydro-4bH-indeno[1,2-b]benzofuran-9b-yl)-1H-benzo[d]imidazole-2-carboxamide] | – | – | < 0.01 µg/mL | < 0.01 µg/mL | < 0.01 µg/mL | < 1 µg/mL | < 1 µg/mL |
| CC(C)c1ccc2c(c1)OC1(O)c3cccc(N)c3C(=O)C21NC(=O)c1nc2cc(F)ccc2[nH]1 (stereo not shown) [Example 291, N-(1-Amino-4b-hydroxy-7-isopropyl-10-oxo-9b,10-dihydro-4bH-indeno[1,2-b]benzofuran-9b-yl)-5-fluoro-1H-benzo[d]imidazole-2-carboxamide] | – | – | < 0.01 µg/mL | < 0.01 µg/mL | < 0.01 µg/mL | < 1 µg/mL | < 1 µg/mL |
